# From PMC4336329 (PLoS ONE, 2015)
# Screen size: about 310,000 compounds; about 2,200 (0.71%) showed an effect of 50% or more. Effects have a minus sign here. The list shows a part of the results.
# Target: human ether-à-go-go-related gene (hERG) potassium channel (human, UniProt Q12809)
# Test: primary screen, population patch clamp on CHO cells stably expressing hERG
# Chain of human ether-à-go-go-related gene (hERG) potassium channel (Q12809 whole entry, looked up): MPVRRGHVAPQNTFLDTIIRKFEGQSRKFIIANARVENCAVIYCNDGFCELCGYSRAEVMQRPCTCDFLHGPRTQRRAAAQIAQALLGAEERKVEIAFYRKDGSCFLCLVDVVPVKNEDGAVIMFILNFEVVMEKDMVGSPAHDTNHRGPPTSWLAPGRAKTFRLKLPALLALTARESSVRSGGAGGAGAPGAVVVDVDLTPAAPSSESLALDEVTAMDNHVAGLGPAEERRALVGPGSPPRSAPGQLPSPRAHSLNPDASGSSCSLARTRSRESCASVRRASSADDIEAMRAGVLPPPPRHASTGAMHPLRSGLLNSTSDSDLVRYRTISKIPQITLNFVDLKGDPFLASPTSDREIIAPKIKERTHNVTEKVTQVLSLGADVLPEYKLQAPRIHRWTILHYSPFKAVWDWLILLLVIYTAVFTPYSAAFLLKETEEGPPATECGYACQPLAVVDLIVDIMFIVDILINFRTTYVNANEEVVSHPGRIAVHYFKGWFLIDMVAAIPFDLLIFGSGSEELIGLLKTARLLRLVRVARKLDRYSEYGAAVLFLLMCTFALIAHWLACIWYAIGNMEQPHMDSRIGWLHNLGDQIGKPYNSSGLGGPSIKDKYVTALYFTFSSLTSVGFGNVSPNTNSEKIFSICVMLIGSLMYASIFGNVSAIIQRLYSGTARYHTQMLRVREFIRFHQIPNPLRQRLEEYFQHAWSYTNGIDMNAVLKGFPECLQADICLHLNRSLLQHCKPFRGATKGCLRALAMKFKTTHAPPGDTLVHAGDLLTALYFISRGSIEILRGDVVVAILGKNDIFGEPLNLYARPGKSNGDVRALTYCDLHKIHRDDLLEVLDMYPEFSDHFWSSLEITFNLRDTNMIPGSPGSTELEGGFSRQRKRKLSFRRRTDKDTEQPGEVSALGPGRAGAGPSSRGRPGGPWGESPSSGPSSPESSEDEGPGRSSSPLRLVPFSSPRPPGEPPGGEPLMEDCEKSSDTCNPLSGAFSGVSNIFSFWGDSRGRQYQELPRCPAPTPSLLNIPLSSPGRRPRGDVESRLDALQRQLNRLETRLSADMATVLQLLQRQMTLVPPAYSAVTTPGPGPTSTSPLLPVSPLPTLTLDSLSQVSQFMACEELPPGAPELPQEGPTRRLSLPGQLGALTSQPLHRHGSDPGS
row,Compound,"hERG current change (%, negative = inhibition) at 1uM [%]"
1,Cc1ccc(-n2c(SCC(=O)NCc3cccs3)nnc2-c2ccoc2C)cc1,-16.5
2,COc1ccc(-c2cc3c(=O)n(CC(=O)N4CCCCC4)ncn3n2)cc1,16.6
3,CC(C)Oc1ccc(C(=O)Nc2ncn[nH]2)cc1,13.2
4,CC1(C)Cc2c(sc3c2C(=O)NC(c2cccnc2)N3)CO1 (stereo not shown),3.36
5,Cc1ccc(CNC(=O)CSc2ccc(-c3ccccn3)nn2)cc1,6.71
6,C[n+]1cccc(/C=N/NC(=O)CC23CC4CC(CC(C4)C2)C3)c1.[I-],12
7,O=c1cc(CSc2nc(NCc3ccccc3)c3ccccc3n2)nc2ccc(Cl)cn12,-30.2
8,CCCCN1C(=O)C(NC(C)=O)c2cc(Br)ccc21 (stereo not shown),-0.178
9,COc1ccc2c(c1)C(c1ccc([N+](=O)[O-])cc1)=NNC(c1ccco1)=N2,-19
10,CC(C)n1c(CN2CCN(C)CC2)nc2c1c(=O)n(C)c(=O)n2C,12.3
11,O=C(N/C(=C\c1cccnc1)c1nc2ccccc2[nH]1)c1cccc(Br)c1,-3.04
12,Cc1ccc(NC2CCCN(C(=O)CCc3cn[nH]c3)C2)cc1C (stereo not shown),7.09
13,CC(=O)c1c(C)[nH]c(C(=O)Nc2cc(C)ccc2C)c1C,4.2
14,O=C(CCl)Nc1ccccc1C(=O)NCc1ccccc1,14.3
15,Cc1sc2ncnc(SCC(=O)N3CCCC(C(F)(F)F)C3)c2c1C (stereo not shown),3.21
16,O=C(Nc1ccc(Br)cc1F)c1sccc1-n1cccc1,10.3
17,O=C(NCc1ccccn1)C1COc2ccccc2O1 (stereo not shown),10.3
18,CC(=O)c1ccc(N2CCN(C(=O)C3CCN(S(=O)(=O)c4ccc5c(c4)CC(C)N5C(=O)C4CC4)CC3)CC2)cc1 (stereo not shown),-4.91
19,CCN1C(=O)N(CC)C(O)(c2ccccc2)C1(O)c1ccccc1 (stereo not shown),5.39
20,CCOc1ccccc1C(=O)Nc1nnc(SCC(=O)N2CCOCC2)s1,15.5
21,CCN(CC(=O)NCc1cccs1)C(=O)CCC(=O)c1ccc(F)cc1,-34.5
22,CC(=O)N1CCN(c2ccc(NC(=S)NC(=O)c3ccccc3)cc2)CC1,5.91

row,Compound,"hERG current change (%, negative = inhibition) at 1uM [%]"
1,CCc1ccc(-c2nc(SCC(=O)NC3CCCC3)n[nH]2)cc1,9.28
2,CC1(C)CC2CC(C)(CN2c2ncnc3ccccc23)C1 (stereo not shown),-1.85
3,CC(C)CC(c1nnnn1Cc1ccco1)N1CCN(c2cccc(Cl)c2)CC1 (stereo not shown),12.6
4,COc1ccc(NC(=O)CSc2nc(-c3ccco3)nc3cc(=O)[nH]n23)cc1Cl,0.811
5,Cc1ccc(S(=O)(=O)n2c(C)nc3cc(C)ccc32)cc1,3.93
6,O=C(COc1cccc2ccccc12)N1CCN(c2ccccc2)CC1,10.5
7,C/C(=N\NC(=O)c1nnn(-c2nonc2N)c1-c1cccs1)c1ccc(C)cc1,-3.6
8,CCN1CCc2nc(N)oc2CC1.Cl,5.81
9,COc1ccc(/C=N/NC(=S)Nc2ccccc2)cc1,19.4
10,O=C(CCN=C1NS(=O)(=O)c2ccccc21)Nc1ccc(Cl)cc1F,15.3
11,Cc1cc(NC(=O)Nc2ccc(Cl)c(Cl)c2)no1,8.41
12,COc1cc(S(=O)(=O)Nc2ccccn2)ccc1F,9.64
13,CC(=O)OCC(=O)N1CCN(c2ccc([N+](=O)[O-])cc2)CC1,-11.8
14,O=C(CN1CCOC1=O)N1CCCC(N2CCN(c3cccc(C(F)(F)F)c3)CC2)C1 (stereo not shown),6.7
15,C=CCNC(=S)NNC(=O)Cn1c(-c2ccccc2)cc(=O)n2ncnc12,11.1
16,COc1ccc(CCN=C(N)NS(=O)(=O)c2ccc(OC)c(OC)c2)cc1OC,6.25
17,O=P(O)(c1ccccc1)c1ccccc1O,-4.6
18,COc1ccc(NC2C=CS(=O)(=O)C2)c(OC)c1 (stereo not shown),13.8
19,O=C(c1cccc([N+](=O)[O-])c1)c1ccc2[nH]c(=O)[nH]c2c1,15
20,O=S(=O)(/N=C(/NC(=S)Nc1ccccc1)c1ccccc1)c1ccc(Cl)cc1,13.7
21,COCCNC(=S)N(CCc1c(C)[nH]c2ccc(F)cc12)Cc1cccs1,14.3
22,CCCC(=O)Nc1ccccc1NC(=O)c1ccc2c(c1)OCO2,18.1

row,Compound,"hERG current change (%, negative = inhibition) at 1uM [%]"
1,c1ccc(Cn2c(Sc3nnnn3-c3ccccc3)nnc2-c2ccccc2)cc1,-10.2
2,O=C(Nc1cc(=O)[nH]c2nc(-c3ccc(Cl)cc3)nn12)c1ccccc1,8.93
3,CCOc1c(Cl)cc(/C=C/C(=O)N(CC)CC(=O)NCc2cccs2)cc1OC,-11
4,CCOC(=O)c1ccc(Nc2sc(C(=O)c3cccc([N+](=O)[O-])c3)c(N)c2C#N)cc1,14.8
5,COc1ccccc1CNC(=O)C(Cc1c[nH]c2ccccc12)NC(=O)OCc1ccccc1 (stereo not shown),1.01
6,CCOc1ccc(C(=O)c2nc3c(n2O)CCCC3)cc1,8.95
7,COc1ccc(-c2n[nH]c(=S)n2C2CCCCC2)cc1,13.6
8,Cc1ccc(CSC2=NCCN2C(=O)C2CC2)cc1,11.7
9,CCOC(=O)c1sc2ccccc2c1NC(=O)c1coc2ccccc2c1=O,6.69
10,CCOCCCn1cnc2c([nH]c3cc(OC)ccc32)c1=O,-0.655
11,FCCCOc1ccc(-c2nccc(-c3ccc(Cl)cc3)n2)cc1,19.6
12,C=CCn1c(SCC(=O)NC2CCCc3ccccc32)nnc1-c1ccncc1 (stereo not shown),-0.835
13,CCOc1ccc(-n2c(Cc3cc(=O)[nH]c(=O)[nH]3)nnc2SCC(=O)Nc2nnc(C)s2)cc1,16.6
14,COc1ccc2c(c1)[nH]c1c(=O)n(/N=C/c3ccc(OC)c(CN4CCCCC4)c3)cnc12,-16.6
15,O=S(=O)(Nc1ccc(-c2nc3cccnc3s2)cc1)c1ccc(Cl)s1,6.41
16,CN(Cc1ccco1)C(=O)Cn1c(=O)oc2cc(S(=O)(=O)NCc3ccccc3)ccc21,7.85
17,O=C(c1cnn(C(=O)c2cccc(S(=O)(=O)N3CCOCC3)c2)c1)c1cc(Cl)cc(Cl)c1O,-0.63
18,CCCCc1ccc(NS(=O)(=O)N(C)C)cc1,-11.8
19,Cc1nc(COc2ccccc2Cl)sc1-c1ccnc(N)n1,7.74
20,Cc1ccc(-n2c(=O)c3c4c(sc3n3c(C)nnc23)COC(C(C)C)C4)cc1 (stereo not shown),7.9
21,COc1ccc(NC(=O)c2cccc(S(=O)(=O)N(C)c3ccccc3)c2)cn1,9.94
22,Cc1ccccc1N(C)C(=O)C1CCCN(c2ncnc3c2nc2n3CCCCC2)C1 (stereo not shown),8.72

row,Compound,"hERG current change (%, negative = inhibition) at 1uM [%]"
1,CCCCN(C)CCNC(=O)CN1C(=O)CSc2ccc(S(=O)(=O)N3CCOCC3)cc21,9.23
2,Cc1cccc(CN2CCN(Cc3ccc4nonc4c3)CC2CCO)n1 (stereo not shown),1.82
3,CCOc1cc(/C=N/Nc2nc3ccccc3[nH]2)cc(Br)c1OCC(=O)N(C)C,7.39
4,Cc1cccc(NC(=O)C(=O)NCCc2c[nH]c3ccccc23)c1C,6.6
5,COc1ccc(S(=O)(=O)NNC(=O)Nc2ccccc2OC)c(OC)c1,12.6
6,COC(=O)c1cc(OC)nc(OC)c1,17.9
7,Cc1ccc(N2C(=O)c3ccccc3C2Nc2ccc(S(=O)(=O)N3CCCCC3)cc2)nc1 (stereo not shown),13.1
8,NNC(=O)c1snnc1-c1ccccc1,13.6
9,CCOc1ccccc1NC(=O)CNC(=O)N1CC(=O)Nc2ccccc21,17.3
10,S=C(NCCc1ccc(Cl)cc1)Nc1ccc(Cl)cc1Cl,7.2
11,N=C1/C(=C\c2coc3ccccc3c2=O)C(=O)N=C2SC=CN12,15.6
12,Cc1nc(-c2nnc(-c3ccccc3)o2)c(C(F)(F)F)o1,8.84
13,CCSc1nnc(NC(=O)C2CCCN(S(=O)(=O)c3cnc[nH]3)C2)s1 (stereo not shown),1.88
14,Cc1ccccc1CC(=O)N1CCN(C(=O)C2CCCO2)CC1 (stereo not shown),19.4
15,COc1ccc(C2=NS(=O)(=O)N(C)C(C(=O)NCc3ccc(F)cc3)=C2)cc1OC,-18.2
16,COc1ccc(OC)c(S(=O)(=O)NC(N)=NCCc2ccccc2)c1,8.34
17,CC(=O)N1c2ccc(S(=O)(=O)N3CCCCC3)cc2CC1C(=O)NCc1cccc(Cl)c1 (stereo not shown),3.27
18,CC1CCC2(CC1)NC(=O)N(CC(=O)c1ccc[nH]1)C2=O (stereo not shown),1.31
19,O=C(NC(=S)Nc1cccc2ncccc12)c1ccco1,13.5
20,COc1ccc(NC(=O)/C(=C/c2cccs2)NC(=O)c2ccco2)cc1,0.505
21,COc1cccc(CN(C)CC(=O)Nc2sc3c(c2C#N)CCC3)c1,6.42
22,CC1CC(C)CN(S(=O)(=O)N2CCCC(C(=O)NCc3ccccc3Cl)C2)C1 (stereo not shown),8
